Source: PubChem BioAssay AID624170 (National Center for Advancing Translational Sciences (NCATS), 2012)
The whole screen tested about 410,000 compounds, of which about 850 (0.21%) were called active. The shares of active, inactive and inconclusive entries below differ from those in the screen. The call rests on the fitted dose curve; in most records, active means well fitted inhibition curve with a large enough effect; inconclusive means small, poorly fitted or top-dose-only effect, or another doubt; inactive means no such curve, though single readings can be large or run the other way. No potency is given beside an inconclusive call; the fits are too rough.

Each compound was assayed against Glutaminase kidney isoform, mitochondrial (Homo sapiens) (UniProt O94925) (assay: qHTS for Inhibitors of Glutaminase (GLS)). Conditions: GLS enzymatic activity, qHTS titration; series mostly up to 45.5 µM; activity change, negative = inhibition: at the top concentration.
How it was run: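 Assay buffer: 45 mM KH2PO4 pH 8.2, 0.02% Tween-20. hKGA acts on L-glutamine (1 mM solution added); product glutamate is reported by an oxidase/peroxidase Amplex Red coupling, with fluorescence taken at baseline and 30 min.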
On the % scale 0 is the no-effect control and ±100 the full control effect; potency means the concentration at half of the fitted maximal effect; tags describe the fitted curve by direction and shape.

Chain of UniProt O94925 (O94925 whole entry, looked up, canonical isoform): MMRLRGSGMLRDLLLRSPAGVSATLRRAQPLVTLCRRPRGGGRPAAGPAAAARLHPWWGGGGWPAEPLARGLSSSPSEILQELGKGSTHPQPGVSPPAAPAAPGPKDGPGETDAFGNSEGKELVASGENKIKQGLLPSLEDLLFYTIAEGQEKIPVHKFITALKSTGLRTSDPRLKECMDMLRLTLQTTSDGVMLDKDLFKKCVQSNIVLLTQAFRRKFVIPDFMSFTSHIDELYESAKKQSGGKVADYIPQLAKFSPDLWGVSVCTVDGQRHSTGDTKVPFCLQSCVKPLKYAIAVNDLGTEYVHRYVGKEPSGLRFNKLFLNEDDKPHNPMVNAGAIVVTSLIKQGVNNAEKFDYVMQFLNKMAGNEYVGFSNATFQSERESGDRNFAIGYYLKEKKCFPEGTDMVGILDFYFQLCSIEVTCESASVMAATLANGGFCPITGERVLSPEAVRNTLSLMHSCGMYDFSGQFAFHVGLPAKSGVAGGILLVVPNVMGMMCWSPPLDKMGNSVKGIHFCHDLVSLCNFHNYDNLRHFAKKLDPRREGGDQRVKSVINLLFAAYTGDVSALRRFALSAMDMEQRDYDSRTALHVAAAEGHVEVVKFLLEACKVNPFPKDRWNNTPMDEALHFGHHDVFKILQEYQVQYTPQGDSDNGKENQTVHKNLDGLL

Row | Compound | Potency | activity change, negative = inhibition
1 | Cc1ccc2nc(-c3ccc(O)c(O)c3)cn2c1 | active: 20 µM | 
2 | O=C(O)CCC(=O)Nc1ccc(C(=O)OCC(=O)c2ccc(Cl)cc2)cc1 | inconclusive [inhibitor, single point] | 
3 | CC1=C(c2ccc(C)c(C)c2)S(=O)(=O)N=C1N1CCC(C(=O)Nc2cccc(F)c2)CC1 |  | inactive: -3.13%
4 | Cc1cnc2cc(Cl)c(Cl)cc2n1 | inconclusive [inhibitor, full curve] | 
5 | N#Cc1nc(-c2cccc3ccccc23)oc1NCC1CCCO1 (stereo not drawn) | inconclusive [inhibitor, partial curve] | 
6 | CC(C)(C)NC(=O)COC(=O)c1c2c(nc3ccccc13)CCC2 |  | inactive: 4.63%
7 | Cc1cc(/C=C2\Sc3ccccc3N2C)cc(C)[n+]1CC1CCCO1 (stereo not drawn) | inconclusive [inhibitor, partial curve] | 
8 | CC(C)C[C@@H](CN)NC(=O)c1nc[nH]c1C(=O)N[C@@H](Cc1c[nH]c2ccccc12)C(=O)CNC[C@H](C)NC(=O)c1nc[nH]c1C(=O)N[C@@H](C)C(=O)O | inconclusive [inhibitor, single point] | 
9 | CC1(C)S[C@@H]2[C@H](NC(=O)C(C(=O)Oc3ccc4c(c3)CCC4)c3ccccc3)C(=O)N2[C@H]1C(=O)O (stereo partly drawn) | active: 7.94 µM | 
10 | CCC(C)n1[nH]c(=O)c2c(C)cc(C)nc21 (stereo not drawn) | inconclusive [inhibitor, single point] | 
11 | CC1C(C#N)=C(SCC(N)=O)NC2=C1C(=O)CC(C)(C)C2 (stereo not drawn) | inconclusive [inhibitor, single point] | 
12 | Cc1cc(C(=O)O)ccc1-c1ccc(/C=C2\NC(=O)N(Cc3ccc(F)cc3)C2=O)o1 | inconclusive [inhibitor, single point] | 
13 | CC(C)C1Nc2ccc(C(=O)NCCCN3CCOCC3)cc2NC1=O (stereo not drawn) | inconclusive [inhibitor, partial curve] | 
14 | CCCc1ccc(-c2cc(NC(=O)CSc3n[nH]c(N)n3)n(-c3ccccc3)n2)cc1 |  | inactive: 2.25%
15 | COc1ccc(-c2cc3nc[nH]c(=O)c3s2)cc1 |  | inactive: -13.8%
16 | O=C(N/N=C/c1ccco1)c1cc(-c2ccccc2)n[nH]1 |  | inactive: -8.72%
17 | Cc1ccc(N(CC(=O)NCc2ccccc2)S(=O)(=O)c2c(C)noc2C)cc1 | inconclusive [inhibitor, partial curve] | 
18 | Cc1nnc(Cc2ccco2)c2n[nH]c(C)c12 | inconclusive [inhibitor, single point] | 
19 | CC[C@@H](C)[C@H](NC(=O)OCc1ccccc1)c1nnc([C@@H](NC(=O)OCc2ccccc2)[C@@H](C)CC)o1 |  | inactive: -4.55%
20 | CCOC(=O)C1C(=O)C=C(c2ccc(C)cc2)CC1c1ccccc1 (stereo not drawn) |  | inactive: -11.2%
21 | C[n+]1cccc2cccc([O-])c21 | inconclusive [inhibitor, single point] | 
22 | Cc1cc(=O)n(CCCc2ccccc2)[nH]1 |  | inactive: 4.26%
23 | Cc1ccc(C23CC4CC(CC(C(=O)N(C)C)(C4)C2)C3)cc1 | inconclusive [inhibitor, single point] | 

Row | Compound | Potency | activity change, negative = inhibition
24 | Cc1nc2nc[nH]n2c(=O)c1CC(=O)O | inconclusive [inhibitor, single point] | 
25 | CCOc1ccc(C(O)(c2ccccc2)C(CN2CCCC2)c2ccccc2)cc1 (stereo not drawn) | inconclusive [inhibitor, single point] | 
26 | CC(=O)Nc1ccc(Oc2cc(C#N)c(C#N)cc2N2CCOCC2)cc1 |  | inactive: 4.89%
27 | O=C(Nc1ccc2c(c1)OCCO2)c1cccc2nc3ccccc3nc12 | inconclusive [inhibitor, single point] | 
28 | COc1ccc2c(c1)C1OCCC1C(c1ccco1)N2 (stereo not drawn) | inconclusive [inhibitor, partial curve] | 
29 | COC(=O)C1(C)CN(S(=O)(=O)c2ccc(C)cc2)c2cc(OC)ccc2C1=O (stereo not drawn) |  | inactive: 6.11%
30 | CN(C)S(=O)(=O)N1CCC(Oc2cccc(C(=O)NC3CCCCC3)c2)CC1 | inconclusive [inhibitor, single point] | 
31 | Cc1cc(=O)[nH]c(N/N=C/c2cc(C)n(-c3ccccc3)c2C)n1 | inconclusive [inhibitor, single point] | 
32 | CCOC(=O)Cc1csc(N/N=C/c2ccc(C(F)(F)F)cc2)n1 | inconclusive [inhibitor, partial curve] | 
33 | CCOC(=O)C1C(c2ccc(Cl)cc2)NC(=S)NC1(O)C(F)(F)F (stereo not drawn) | inconclusive [inhibitor, partial curve, poor fit] | 
34 | CCOC(=O)c1ccc(N=c2ssnc2Cl)cc1 | active: 12.6 µM | 
35 | O=C(O)c1ccc(-n2c(-c3cc(-c4ccco4)[nH]n3)n[nH]c2=S)cc1 | inconclusive [inhibitor, partial curve] | 
36 | Cc1c(NC(=O)CSc2ccc3c(c2)OCCO3)c(=O)n(-c2ccccc2)n1C | inconclusive [inhibitor, single point] | 
37 | CC(CNC(=O)Cn1ccc2cc(S(=O)(=O)N3CCCCCC3)ccc21)c1ccccc1 (stereo not drawn) |  | inactive: -7.31%
38 | Cc1ccc(CNC(=O)Nc2ccc(OC(F)(F)F)cc2)n1C | inconclusive [inhibitor, single point] | 
39 | O=C(CCn1ccc2cc(S(=O)(=O)N3CCCC3)ccc21)NCc1cccc(F)c1 | inconclusive [inhibitor, single point] | 
40 | CN(C)c1ccc(C2Nc3cccc4cccc(c34)N2)cc1 | inconclusive [inhibitor, single point] | 
41 | C/C(CC(=O)Nc1ccc(N(C)C)cc1)=N\NC(=O)c1ccc([N+](=O)[O-])cc1Cl | inconclusive [inhibitor, partial curve, poor fit] | 
42 | COCC(=O)OC1CCn2c1nc1c2C(=O)C(C)=C(NC(C)=O)C1=O (stereo not drawn) | inconclusive [inhibitor, single point] | 
43 | CCOC(=O)C1CCN(c2nc(N)c3c(N)nc(SCC(=O)O)cc3c2C#N)CC1 | inconclusive [inhibitor, partial curve] | 
44 | O=S(=O)(NCCN1CCOCC1)c1ccc(F)c(Cl)c1 | inconclusive [inhibitor, single point] | 
45 | CCN(Cc1nc2ccccc2c(=O)[nH]1)C(=O)COc1ccccc1Cc1ccccc1 |  | inactive: 6.33%
46 | Cc1ccc(N2C(=O)N(CC(=O)Nc3ccccc3C)C(=O)C2C)cc1 (stereo not drawn) | inconclusive [inhibitor, partial curve, poor fit] | 

Row | Compound | Potency | activity change, negative = inhibition
47 | Oc1ccc(N=Nc2ccccc2-c2nn[nH]n2)c(O)c1 |  | inactive: 20%
48 | CCOc1cc(/C=N/NC(=O)C(O)(c2ccccc2)c2ccccc2)ccc1OC(=O)c1ccco1 | inconclusive [inhibitor, partial curve] | 
49 | CCc1cccc(CC)c1NS(=O)(=O)c1ccc2c(c1)CCN2C(=O)C1CC1 |  | inactive: 8.2%
50 | O=C(CCc1nnc(-c2ccc3c(c2)OCO3)o1)NCCc1ccccc1F | inconclusive [inhibitor, single point] | 
51 | O=C1ON=C(c2ccccc2)/C1=C/c1ccco1 | inconclusive [inhibitor, single point] | 
52 | CC(=O)Nc1ccc2c(O)cc(S(=O)(=O)O)cc2c1 | active: 10 µM | 
53 | Cc1ccc(C)c(S(=O)(=O)c2nnn3c2nc(N2CCOCC2)c2sccc23)c1 | inconclusive [inhibitor, single point] | 
54 | Cc1ccc2cc(C)c(N3CCC(C)CC3)nc2c1 | inconclusive [inhibitor, single point] | 
55 | S=c1[nH]nc2n1CCCN2 | active: 11.2 µM | 
56 | N#Cc1c(-c2ccccc2)ccn(Cc2ccc(Cl)cc2)c1=O | inconclusive [inhibitor, single point] | 
57 | CCCN(CCC)CCNC(=O)c1cn(C)c(=O)c2c1c1ccccc1n2C | inconclusive [inhibitor, single point] | 
58 | Cc1ccc(-n2c(C)nnc2SC(C)C(=O)N2CCCC2)cc1 (stereo not drawn) | inconclusive [inhibitor, single point] | 
59 | C/C(=C\c1ccco1)C1C(C#N)=C(N)OC2=C1C(=O)CC(C)(C)C2 (stereo not drawn) | inconclusive [inhibitor, partial curve, poor fit] | 
60 | CCOC(=O)CNC(=O)CSc1nc(C(C)C)nc2c1cnn2-c1ccccc1 |  | inactive: 1.57%
61 | COc1cccc(/C=N/NC(=O)c2cc3c(OC)cccc3[nH]2)c1O | inconclusive [inhibitor, partial curve, poor fit] | 
62 | Cc1ccc(NC(=O)c2ncn(CC(=O)NCc3ccc4[nH]ccc4c3)n2)cc1C |  | inactive: 3.68%
63 | Cc1c(Nc2c3ccccc3nc3ccccc23)c(=O)n(-c2ccccc2)n1C | inconclusive [inhibitor, partial curve] | 
64 | Oc1ccc(C[C@H]2CNCCN2CCc2cccc3ccccc23)cc1 | inconclusive [inhibitor, single point] | 
65 | O=C(Nc1ccc(-c2nc3ncccc3o2)cc1)c1ccco1 | inconclusive [inhibitor, single point] | 
66 | CCn1cc(C(=O)NCc2ccc(C)cc2)c(=O)c2cc(S(=O)(=O)N3CCCCCC3)ccc21 | inconclusive [inhibitor, full curve, poor fit] | 
67 | COc1ccc(-c2csc(NC(=O)CSc3nc4ccccc4c(=O)[nH]3)n2)cc1 | inconclusive [inhibitor, partial curve, poor fit] | 
68 | COc1ccc(-c2nc3c4ccccc4[nH]c(=O)n3n2)cc1 | inconclusive [inhibitor, partial curve, poor fit] | 
